We go through three compounds from paper PMC5075699.

One data set deals with hAPP-J20 (J20) mice. In words: Morris water maze #2, hAPP-J20 mice. The note with it: 2.5 mpk in 50% DMSO/50% PEG; vs vehicle.
For data set [1] the following is noted: ref Sidrauski et al., 2013; Halliday et al., 2015; cited from earlier work.
Another data set relates to ATF4. Kind of data set: ATF4 western blot, 293T cell lysate controls (ER stress induction). The note with it: 293T cell lysate; cortex ATF4 blot 1.

`O=C(COc1ccc(Cl)cc1)NC1CCC(NC(=O)COc2ccc(Cl)cc2)CC1` (centres unmarked) [ISRIB]: the “MWM training latency J20 Trial*ISRIB (linear mixed effects regression model)” value in the data set with hAPP-J20 (J20) mice is recorded as 4.6 sec/day. Further, in data set [1], the blood-brain-barrier penetration result is listed as “readily crosses the blood–brain-barrier”.
With `C/C=C(/C)C(=O)O[C@H]1C(C)=C2[C@H]([C@@H]1OC(=O)CCCCCCC)[C@@](C)(OC(C)=O)C[C@H](OC(=O)CCC)[C@@]1(O)[C@H]2OC(=O)[C@@]1(C)O` [Thapsigargin, thapsigargin], the “ATF4 Signal (channel 800)” value with ATF4 is given as 1.08E+03.
For the compound tunicamycin, in the data set with ATF4, the “ATF4:GAPDH signal (normalized ATF4)” value is recorded as 3.91E-01 and the “ATF4 Signal (channel 800)” value was 1.25E+03.
